Experimental data published in the supplement of paper PMC4604168 (melanoma cell lines).
This is one part of the list. Repeats are few or missing, and single values can be far off.

test system: WM115; test: cell count relative to DMSO control; melanoma cells; higher = more viable cells; settings: library dose: standard library concentration; 72 h
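Also: cells treated in 1,536-well plates, then fixed and DAPI-stained, with nuclei counted from automated high-throughput microscope images.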

Structure (SMILES) | cell count [%]
CC1(C)CCC(c2ccc(Cl)cc2)=C(CN2CCN(c3ccc(C(=O)NS(=O)(=O)c4ccc(N[C@H](CCN5CCOCC5)CSc5ccccc5)c(S(=O)(=O)C(F)(F)F)c4)cc3)CC2)C1 + Cn1cc(/C=C2\C(=O)Nc3cccnc32)c2ccccc21 [GW441756] (first compound 2 µM, partner dose 2 µM) | 69
O=C(/C=C/c1cccnc1)NCCCCC1CCN(C(=O)c2ccccc2)CC1 + COc1cc2ncnc(Nc3ccc(Oc4ccccc4)cc3)c2cc1OC [SrcI1] (first compound 0.05 µM, partner dose 10 µM) | 69.1
O=C(/C=C/c1cccnc1)NCCCCC1CCN(C(=O)c2ccccc2)CC1 + O=S(=O)(c1ccccc1)N(CC(F)(F)F)c1ccc(C(O)(C(F)(F)F)C(F)(F)F)cc1 [T0901317] (first compound 0.05 µM, partner dose 7 µM) | 81.5
CC1(C)CCC(c2ccc(Cl)cc2)=C(CN2CCN(c3ccc(C(=O)NS(=O)(=O)c4ccc(N[C@H](CCN5CCOCC5)CSc5ccccc5)c(S(=O)(=O)C(F)(F)F)c4)cc3)CC2)C1 + COC(=O)c1sccc1S(=O)(=O)Nc1ccc(Nc2ccccc2)cc1OC [GSK0660] (first compound 2 µM, partner dose 5 µM) | 95.2
CC1(C)CCC(c2ccc(Cl)cc2)=C(CN2CCN(c3ccc(C(=O)NS(=O)(=O)c4ccc(N[C@H](CCN5CCOCC5)CSc5ccccc5)c(S(=O)(=O)C(F)(F)F)c4)cc3)CC2)C1 + c1cc(-c2cnn3cc(-c4ccc(OCCN5CCCCC5)cc4)cnc23)ccn1 [Dorsomorphin] (first compound 2 µM, partner dose 2 µM) | 55.5
Cc1ccc(Nc2nccc(N(C)c3ccc4c(C)n(C)nc4c3)n2)cc1S(N)(=O)=O [Pazopanib] + CO[C@@H]1[C@H](N(C)C(=O)c2ccccc2)C[C@H]2O[C@]1(C)n1c3ccccc3c3c4c(c5c6ccccc6n2c5c31)C(=O)NC4 [Midostaurin] (first compound 2 µM, partner dose 0.4 µM) | 43
O=C(/C=C/c1cccnc1)NCCCCC1CCN(C(=O)c2ccccc2)CC1 + CO[C@@H]1[C@H](N(C)C(=O)c2ccccc2)C[C@H]2O[C@]1(C)n1c3ccccc3c3c4c(c5c6ccccc6n2c5c31)C(=O)NC4 [Midostaurin] (first compound 0.05 µM, partner dose 0.4 µM) | 42.6
Cc1ccc(Nc2nccc(N(C)c3ccc4c(C)n(C)nc4c3)n2)cc1S(N)(=O)=O [Pazopanib] + Oc1nc(-c2ccc(C(F)(F)F)cc2)nc2c1CSCC2 [XAV939] (first compound 2 µM, partner dose 10 µM) | 75.3
CC1(C)CCC(c2ccc(Cl)cc2)=C(CN2CCN(c3ccc(C(=O)NS(=O)(=O)c4ccc(N[C@H](CCN5CCOCC5)CSc5ccccc5)c(S(=O)(=O)C(F)(F)F)c4)cc3)CC2)C1 + Cc1ccc(Nc2nccc(N(C)c3ccc4c(C)n(C)nc4c3)n2)cc1S(N)(=O)=O [Pazopanib] (first compound 2 µM, partner dose 2 µM) | 82.8
CC1(C)CCC(c2ccc(Cl)cc2)=C(CN2CCN(c3ccc(C(=O)NS(=O)(=O)c4ccc(N[C@H](CCN5CCOCC5)CSc5ccccc5)c(S(=O)(=O)C(F)(F)F)c4)cc3)CC2)C1 + CCCCCCCCCCCC1=C(O)C(=O)C=C(O)C1=O [Embelin] (first compound 2 µM, partner dose 6 µM) | 66.3
Cc1ccc(Nc2nccc(N(C)c3ccc4c(C)n(C)nc4c3)n2)cc1S(N)(=O)=O [Pazopanib] + NCC(=O)Nc1ccc(-n2nc(C(F)(F)F)cc2-c2ccc3c(ccc4ccccc43)c2)cc1 [OSU03012] (first compound 2 µM, partner dose 5 µM) | 76.1
O=C(/C=C/c1cccnc1)NCCCCC1CCN(C(=O)c2ccccc2)CC1 + Cn1cc(/C=C2\C(=O)Nc3cccnc32)c2ccccc21 [GW441756] (first compound 0.05 µM, partner dose 2 µM) | 105
O=C(/C=C/c1cccnc1)NCCCCC1CCN(C(=O)c2ccccc2)CC1 + CCCCCCCCCCCC1=C(O)C(=O)C=C(O)C1=O [Embelin] (first compound 0.05 µM, partner dose 6 µM) | 83.7
O=C(/C=C/c1cccnc1)NCCCCC1CCN(C(=O)c2ccccc2)CC1 + Cc1cc(Nc2cc(N3CCN(C)CC3)nc(/C=C/c3ccccc3)n2)n[nH]1 [ENMD2076] (first compound 0.05 µM, partner dose 0.2 µM) | 59
O=C(/C=C/c1cccnc1)NCCCCC1CCN(C(=O)c2ccccc2)CC1 + COC(=O)c1sccc1S(=O)(=O)Nc1ccc(Nc2ccccc2)cc1OC [GSK0660] (first compound 0.05 µM, partner dose 5 µM) | 94.4
